In PMC4336329 (PLoS ONE, 2015):
Among all 310,000 compounds or so, about 14,000 (4.5%) showed an effect of 50% or more. The effect is printed as a negative number. This is one part of the list.
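Further: peak tail current of the secondary pulse compared with the same well before compound.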

The molecules below were run against human ether-à-go-go-related gene (hERG) potassium channel (human, UniProt Q12809) (assay: primary screen, population patch clamp on CHO cells stably expressing hERG).
Chain of human ether-à-go-go-related gene (hERG) potassium channel (Q12809 whole entry, looked up): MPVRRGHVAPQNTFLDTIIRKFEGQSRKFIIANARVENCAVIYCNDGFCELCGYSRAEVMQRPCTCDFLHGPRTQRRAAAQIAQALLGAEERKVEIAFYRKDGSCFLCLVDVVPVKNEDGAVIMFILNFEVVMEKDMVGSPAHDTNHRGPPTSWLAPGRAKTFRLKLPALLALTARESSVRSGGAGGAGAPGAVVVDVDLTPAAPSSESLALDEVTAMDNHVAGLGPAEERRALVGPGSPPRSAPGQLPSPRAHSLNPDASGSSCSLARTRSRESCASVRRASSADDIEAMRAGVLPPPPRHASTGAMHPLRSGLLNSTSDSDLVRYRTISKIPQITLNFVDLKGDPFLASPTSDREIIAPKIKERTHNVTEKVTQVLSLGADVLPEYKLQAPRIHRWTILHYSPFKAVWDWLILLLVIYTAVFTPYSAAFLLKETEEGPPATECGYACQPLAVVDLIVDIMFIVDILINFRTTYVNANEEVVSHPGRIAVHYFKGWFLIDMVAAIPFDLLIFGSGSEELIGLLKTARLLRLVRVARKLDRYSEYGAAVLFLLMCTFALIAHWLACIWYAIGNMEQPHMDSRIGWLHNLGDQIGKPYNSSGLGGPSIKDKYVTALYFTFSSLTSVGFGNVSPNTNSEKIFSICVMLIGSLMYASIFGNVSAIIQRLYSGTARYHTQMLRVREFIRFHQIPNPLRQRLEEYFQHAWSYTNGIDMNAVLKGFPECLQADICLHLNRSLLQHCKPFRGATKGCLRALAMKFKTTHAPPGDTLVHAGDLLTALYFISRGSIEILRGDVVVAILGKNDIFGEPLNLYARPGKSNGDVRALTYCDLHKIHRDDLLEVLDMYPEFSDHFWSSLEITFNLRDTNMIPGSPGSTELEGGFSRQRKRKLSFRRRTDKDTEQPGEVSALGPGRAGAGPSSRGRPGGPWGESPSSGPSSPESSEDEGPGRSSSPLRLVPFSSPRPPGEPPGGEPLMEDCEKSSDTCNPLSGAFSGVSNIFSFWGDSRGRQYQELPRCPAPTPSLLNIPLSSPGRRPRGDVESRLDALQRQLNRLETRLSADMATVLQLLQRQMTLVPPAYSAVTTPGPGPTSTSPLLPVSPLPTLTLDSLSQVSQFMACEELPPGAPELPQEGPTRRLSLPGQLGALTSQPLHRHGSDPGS
COC(=O)C1=C(c2ccc(-c3ccccc3)c(F)c2)C[C@@H]2CC[C@H]1N2C(=O)NCc1ccco1 was tested, and the “hERG current change (%, negative = inhibition) at 10uM” value was -16.8%. For CCc1ccc(C2CC(c3ccccc3C)n3nc(N)nc3N2)cc1 (stereo not shown), the “hERG current change (%, negative = inhibition) at 10uM” value was -1.57%. In the case of CC(=O)c1cccc(NC(=O)c2ccc(N(C)S(C)(=O)=O)cc2)c1, the “hERG current change (%, negative = inhibition) at 10uM” value is reported as 9.35%. For O=C(COC(=O)c1ccc(NS(=O)(=O)c2cccs2)cc1)NCc1ccco1, the “hERG current change (%, negative = inhibition) at 10uM” value was 14.8%. COC(=O)c1ccc2c(=O)n(CCCCCC(=O)NC(C)C)c(=O)[nH]c2c1 was tested, and the “hERG current change (%, negative = inhibition) at 10uM” value was -31.2%. CC(=O)Nc1cc(C(=O)OCC(=O)c2ccccc2)ccc1C was tested, and the “hERG current change (%, negative = inhibition) at 10uM” value was 9.31%. In the case of CCOc1cc(NC(=O)c2ccccc2C)c(OCC)cc1NC(=O)C1=Cc2ccccc2OC1, the “hERG current change (%, negative = inhibition) at 10uM” value is reported as 9.99%. O=Cc1c(C(=O)O)n(Cc2ccccc2Cl)c2ccccc12 was tested, and the “hERG current change (%, negative = inhibition) at 10uM” value was 24.3%. COc1cccc(NC(=O)C2CCN(S(=O)(=O)c3ccc4c(c3)NC(=O)CO4)CC2)c1 was tested, and the “hERG current change (%, negative = inhibition) at 10uM” value was 16.2%. In the case of CNCc1cn2cc(Cl)ccc2n1, the “hERG current change (%, negative = inhibition) at 10uM” value is reported as -6.71%. For CC1Cc2ccccc2N1C(=O)COC(=O)c1ccccc1NCCO (stereo not shown), the “hERG current change (%, negative = inhibition) at 10uM” value was 1.36%. COc1cccc(OCc2cc(C(=O)N(Cc3ccccc3)CC3CC3)no2)c1 was tested, and the “hERG current change (%, negative = inhibition) at 10uM” value was 7.76%. In the case of CC(=O)c1ccc(NC(=O)c2cc(CC(C)C)nc3ccccc23)cc1, the “hERG current change (%, negative = inhibition) at 10uM” value is reported as 9.23%. With CCC(C)NC(=O)COc1ccc(OCc2ccccc2)cc1 (stereo not shown) the “hERG current change (%, negative = inhibition) at 10uM” value was 5.21%. CN(C)C(=O)NC1c2ccccc2-c2ccccc21 was tested, and the “hERG current change (%, negative = inhibition) at 10uM” value was 16.7%. In the case of Clc1nc(Cl)nc(-c2cn(-c3ccccc3)c3ccccc23)n1, the “hERG current change (%, negative = inhibition) at 10uM” value is reported as 8.76%. For Cc1nn(C)c(C)c1C(C)NC(=O)c1cc(COc2ccc(F)c(F)c2)on1 (stereo not shown), the “hERG current change (%, negative = inhibition) at 10uM” value was -14.4%. With CN(C)c1ccncc1C(=O)Nc1ccc(F)cc1F the “hERG current change (%, negative = inhibition) at 10uM” value was -24.9%. With CC(C)(C)NC(=O)COC(=O)CNC(=O)c1cc(Cl)cc([N+](=O)[O-])c1 the “hERG current change (%, negative = inhibition) at 10uM” value was 13.1%. For COC(CSc1ncnc2c1oc1nc3c(cc12)COC(C)(C)C3)OC, the “hERG current change (%, negative = inhibition) at 10uM” value was -15.6%. With Cc1ccc(OCCCC(=O)NC(C)c2ccccc2)cc1 (stereo not shown) the “hERG current change (%, negative = inhibition) at 10uM” value was 6.49%. CC(Oc1ccccc1)C(=O)N=C1SC2CS(=O)(=O)CC2N1Cc1ccccc1 (stereo not shown) was tested, and the “hERG current change (%, negative = inhibition) at 10uM” value was -11.4%. For COc1ccc(N2CCN(c3ncnc4sc(C(=O)NCC5CCCO5)c(C)c34)CC2)cc1 (stereo not shown), the “hERG current change (%, negative = inhibition) at 10uM” value was -63.4%. For COc1ccc(CN2CCN(c3ccccc3F)CC2)cc1O, the “hERG current change (%, negative = inhibition) at 10uM” value was -66.5%. In the case of CCn1c(SCC(=O)N2CCc3ccccc32)nnc1-c1ccco1, the “hERG current change (%, negative = inhibition) at 10uM” value is reported as 1.79%. For C=C[C@@H]1c2ccccc2N(S(=O)(=O)c2ccc(C)cc2)[C@H](c2ccccc2C(F)(F)F)C1(C#N)C#N, the “hERG current change (%, negative = inhibition) at 10uM” value was 20.2%. In the case of COc1ccc(Cl)cc1NC(=O)C(C)N1CCc2ccccc21 (stereo not shown), the “hERG current change (%, negative = inhibition) at 10uM” value is reported as 23.9%. With CCN(CC)CCn1c2c(c(SCC(=O)Nc3ccc(C)c(F)c3)nc1=O)CCC2 the “hERG current change (%, negative = inhibition) at 10uM” value was -63.8%. CCOc1ccc(CCNC(=O)COC(=O)c2ccc(C)s2)cc1OCC was tested, and the “hERG current change (%, negative = inhibition) at 10uM” value was 14.6%. For COc1cccc(NC(=O)Nc2cccc(C)n2)c1, the “hERG current change (%, negative = inhibition) at 10uM” value was 30.1%. With COc1ccc(C(=O)c2oc3ccc(OC)cc3c2NC(C)=O)cc1 the “hERG current change (%, negative = inhibition) at 10uM” value was 27.6%. In the case of CC1CCCN(c2ncnc3c2cnn3-c2ccccc2)C1 (stereo not shown), the “hERG current change (%, negative = inhibition) at 10uM” value is reported as -1.2%. For COC(=O)c1cc(S(=O)(=O)NCCc2sccc2C)c[nH]1, the “hERG current change (%, negative = inhibition) at 10uM” value was 2.8%. In the case of COc1ccc(OC)c(-c2csc(NC(=O)Cc3cc(OC)c(OC)c(OC)c3)n2)c1, the “hERG current change (%, negative = inhibition) at 10uM” value is reported as 13%. In the case of Cc1ccc(-c2nc(CS(=O)CC(=O)NC3CC3)c(C)o2)cc1 (stereo not shown), the “hERG current change (%, negative = inhibition) at 10uM” value is reported as 6.39%. With Cc1ccc(OCC(=O)N(Cc2ccccc2)C2CCS(=O)(=O)C2)c([N+](=O)[O-])n1 (stereo not shown) the “hERG current change (%, negative = inhibition) at 10uM” value was -12.1%. N/C(=N\OC(=O)c1ccc(Cl)cc1Cl)c1ccccn1 was tested, and the “hERG current change (%, negative = inhibition) at 10uM” value was -4.07%. With COC(=O)c1ccccc1S(=O)(=O)NCc1nc2nc(C)cc(C)n2n1 the “hERG current change (%, negative = inhibition) at 10uM” value was 7.78%. For Cc1ccc(-n2nc(C)c3c(C)onc3c2=O)cc1, the “hERG current change (%, negative = inhibition) at 10uM” value was 21.6%. In the case of COc1ccc(N2CCOCC2)c(NC(=O)c2cc3ccccc3o2)c1, the “hERG current change (%, negative = inhibition) at 10uM” value is reported as 11.6%. In the case of CCn1c(C)cc2c(c1=O)C(c1ccccc1Br)C(C#N)=C(N)O2 (stereo not shown), the “hERG current change (%, negative = inhibition) at 10uM” value is reported as 0.963%. With Cc1cc(C)c(C(=O)Nc2cccc(F)c2)c(Cl)n1 the “hERG current change (%, negative = inhibition) at 10uM” value was -21.9%. For COC(=O)[C@H](C)NC(=O)Nc1cc(Cl)ccc1C, the “hERG current change (%, negative = inhibition) at 10uM” value was 14.3%. With O=C(CCC(=O)OCc1ccc(C(=O)Oc2ccccc2)cc1)Nc1cccc2ccccc12 the “hERG current change (%, negative = inhibition) at 10uM” value was -4.75%. With O=S(=O)(NCCC1CC1(Cl)Cl)c1ccc(Cl)cc1 (stereo not shown) the “hERG current change (%, negative = inhibition) at 10uM” value was 1.44%. In the case of CCN(CCCNC(=O)CNC(=O)c1nn(-c2ccc(OC)cc2OC)c(=O)c2ccccc12)c1cccc(C)c1, the “hERG current change (%, negative = inhibition) at 10uM” value is reported as -20%. Cc1cccc(-n2c(CNC(=O)c3cccc([N+](=O)[O-])c3C)n[nH]c2=S)c1 was tested, and the “hERG current change (%, negative = inhibition) at 10uM” value was 27.4%. In the case of CC12CC[C@H]3[C@@H](CCC4(O)C[C@H](O)CCC34/C=N/NC(=O)c3ccccc3Cl)C1(O)CCC2C1=CC(=O)OC1 (stereo partly shown), the “hERG current change (%, negative = inhibition) at 10uM” value is reported as 9.69%. In the case of CCCCOC(=O)CSc1nnc(N)s1, the “hERG current change (%, negative = inhibition) at 10uM” value is reported as -3.51%. In the case of Nc1ccc(-n2c(N)c(C(=O)NCc3ccc4c(c3)OCO4)c3nc4ccccc4nc32)cc1, the “hERG current change (%, negative = inhibition) at 10uM” value is reported as 5.95%. For CCCC(=O)Nc1nnc(CCc2ccccc2)s1.Cl, the “hERG current change (%, negative = inhibition) at 10uM” value was -1.14%. In the case of COc1ccccc1CNC(=O)c1ccc(NS(=O)(=O)c2cccs2)cc1, the “hERG current change (%, negative = inhibition) at 10uM” value is reported as -18.6%. For O=Cc1ccc(OCCOc2ccc([N+](=O)[O-])cc2)cc1, the “hERG current change (%, negative = inhibition) at 10uM” value was 6.17%. In the case of Cc1ccc(C)c(C(=O)CCC(=O)NCc2ccc(Cl)cc2)c1, the “hERG current change (%, negative = inhibition) at 10uM” value is reported as -7.22%. CSCCC(NC(=O)COc1ccccc1)C(=O)N1CC(C)CC(C)C1 (stereo not shown) was tested, and the “hERG current change (%, negative = inhibition) at 10uM” value was -41.4%.
